From the RNAGym collection of RNA variant scans (doi:10.1093/nar/gkz1192) come the findings set out here.

B1: CPEB3 Ribozyme (parent)
chain: UAACAGGGGGCCACAGCAGAAGCGUUCACGUCGCAGCCCCUGUCAGAUUCUGGUGAAUCUGCGAAUUCUGCUGUAUAUCUC

The source gives no read counts; variants with many changes may rest on few reads.

In this data set the parent is B1. The experiment in a line: self-cleavage, relative activity (ratio to wild type); higher = more cleavage; in vitro, sequencing. Summed up: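 Relative activity was defined as the cleaved/total read fraction for a variant divided by the same fraction for the unmutated ribozyme. CPEB3 self-cleaving ribozyme libraries were made by rounds of error-prone PCR, barcoded, and transcribed in vitro with T7 RNA polymerase for 5 hours at 37°C, and cleavage ran through transcription plus a 15 min DNase I step before EDTA. Illumina sequencing of template-switched reverse transcripts gave the reads, and DNA sequencing mapped the barcodes. Averages come from three batches, using variants with at least 5 reads.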
Take A15G A28G G33A U43C U66C: the self-cleavage stood at 0.16.
In the case of A15G A28G A45G U49C C59A it was 0.27.
As to A15G A47G U67C U72A, the self-cleavage is 0.12.
Then A15G A21G G30A A56U U78C, with 0.07.
In the case of A15G A35G G52A A56G U58A it was 0.25.
In the case of A15G C59A U72A it was 0.17.
As for A15G A21G C38G U69C, the self-cleavage was 0.17.
Take A15G A21U A28G A35G U51A: the self-cleavage is 0.33.
As to A15G C17G U41A A45U, the self-cleavage was 0.24.
In the case of A15G C23U U25C A28G U31G U76A it was 0.08.
In the case of A15G A21G C34U U80C it was 0.42; in that of A15G A35U C39A U60C U67A U80G, 0.04; in that of A15G A21U U43C C62U, 0.07.
In the case of A15G C40U U51A G61C it was 0.1; in that of A15G C39G A56G U60A, 0.11; in that of A15G A35U G42A U51A, 0.26.
With A15G C34A C39G U69C, the self-cleavage was 0.04.
Then A15G C29U U80C, with 0.21.
Then A15G A35G U41C U58C A64G, with 0.41; and A15G A21G U26C G53A A57G, with 0.28; and A15G C29U U48C U58C, with 0.16.
Then A15G A21G U26C C32U U67C, with 0.05; and A15G A35U U41C U43C, with 0.07.
With A15G A28U U54C U66G, the self-cleavage amounted to 0.18.
Then A15G A35U G36C A47G U48C U49C U78C, with 0.18.
Then A15G A35G U49A A64U U67C G70A, with 0.1; and A15G A21G U31C U72C, with 0.48; and A15G A28C U41C G73C, with 0.44.
Then A15G G16A A64U U80C, with 0.46; and A15G C39A A47G U66C A77U, with 0.08.
Take A15G A45G U51A: the self-cleavage stood at 0.76.
For the variant A15G A45G U51C, the self-cleavage stood at 0.4.
In the case of A15G C23U C32A C39A U66A U80A it was 0.06; in that of A15G A28C A75G, 0.27; in that of A15G A21U G33A U72A, 0.05.
In the case of A15G A35G U49C it was 0.3.
On to A15G A47C U67A, for which the self-cleavage was found to be 0.14.
In the case of A15G C17U U58A it was 0.35; in that of A15G A64G G73A, 1.22.
In the case of A15G A21G C32U U41C U67C it was 0.14; in that of A15G C44A A45G G73U, 0.56; in that of A15G C50U U60A U66C, 0.1.
Then A15G A28G A64C U66C U80C, with 0.07.
Consider A15G A21G A77U, for which the self-cleavage was found to be 0.67.
Regarding A15G C44G U51A G55A U66A U72C, the self-cleavage is 0.08.
Then A15G C32U A35G U51A A64G U66C U78C, with 0.09.
In the case of A15G A56G U69C it was 0.25; in that of A15G A57G U58A, 0.3; in that of A15G A47U U60C, 0.18.
In the case of A15G A28U U49A G61A G70A A77G it was 0.1; in that of A15G A35U U41C A45C, 0.17.
As for A15G C40U U67C U78C, the self-cleavage is 0.32.
Then A15G A35G U54A, with 0.77; and A15G C17A A56G U58C G63C C79A, with 0.13; and A15G A47G U67C, with 0.23.
Then A15G A56G U72C C79U, with 1.27; and A15G A35G U51A C62A, with 0.16.
Then A15G A45G U51C U54C A64G U74A, with 0.16; and A15G A57U C62U, with 0.35; and A15G C38A U43A, with 0.23.
On to A15G C34U U54A A57U U76C, for which the self-cleavage turned out to be 0.08.
In the case of A15G A21G A65G C68U G70A U72A it was 0.18; in that of A15G A56G G63A U66C, 0.3.
In the case of A15G A35G U60C it was 0.18; in that of A15G A35G U60A, 0.43; in that of A15G A21G C62U A65U, 0.12.
In the case of A15G A35G A45U U80A it was 0.49; in that of A15G C23G U41C U67C, 0.04.
In the case of A15G A28C U49C U54C, the self-cleavage is 0.17.
Then A15G A35U U48C U67C C68G, with 0.16; and A15G C23U A57G A64G, with 0.16.
Then A15G A47C A57G U80C, with 0.28.
Turning to A15G A57C U80C, the self-cleavage was determined as 0.15.
Then A15G C32A G55A A65U, with 0.14.
Turning to A15G A56U A64G, the self-cleavage is 0.18.
Then A15G A45G A57G, with 0.42.
Then A15G G16C U25C A47U C68G U72C, with 0; and A15G A35U C38A U43G U54C, with 0.13.
In the case of A15G A47G U58A U72A it was 0.16; in that of A15G C44U U48C C62A, 0.24; in that of A15G A28U U58A G61A A77G, 0.08.
In the case of A15G A28U A45U U60C C62U U72A, the self-cleavage came out at 0.03.
In the case of A15G A57G C68U U69A it was 0.27; in that of A15G A47G U66C, 0.28; in that of A15G A21G A56G A65U, 0.17.
Then A15G A28U A47U A75G, with 0.15; and A15G C62U U80A, with 0.24; and A15G A21G U41A U72G, with 0.18.
Then A15G C32A C38A U41C A45C U51G, with 0.06; and A15G C17G U26A U51A U69C U80A, with 0.11; and A15G A21G C39G, with 0.09.
Regarding A15G A56G U72C, the self-cleavage was determined as 1.12.
In the case of A15G A64G U78A it was 0.7; in that of A15G A28U U51C, 0.41; in that of A15G A45G A47G U69A, 0.16.
For A15G C32U A35U, the self-cleavage turned out to be 0.11.
In the case of A15G A56G U67A it was 0.18; in that of A15G A21G U60C, 0.11; in that of A15G A47G U51C U76C, 0.67.
In the case of A15G A64U U72C C79G it was 0.39; in that of A15G A45G A47G, 0.25; in that of A15G A35G U43C A65C U74C, 0.14.
Then A15G C29U U49G U58C, with 0.13; and A15G A28G A57G, with 0.44; and A15G A21G U69C, with 0.2.
Consider A15G A21G U69A, for which the self-cleavage turned out to be 0.17.
Then A15G A56G U60C, with 0.26; and A15G C62G A65G U66C A75G C81A, with 0.25; and A15G C17G U48C G52C U54G, with 0.03.
In the case of A15G A21G C38A U43A U69G A77C it was 0.05; in that of A15G A56G A57U, 0.24.
In the case of A15G A28G A35U U60C U72A it was 0.08; in that of A15G A64U C79U, 0.43; in that of A15G A47G U74C, 1.29.
As for A15G A28G U31C, the self-cleavage was determined as 0.12.
In the case of A15G C23G U25A U41C U67A U72G U76C it was 0.04; in that of A15G C17A G63C C79G, 0.15.
Then A15G A77G U80C, with 1.17; and A15G C38U U41C, with 0.92; and A15G G16A U31C U41C U51A U58C U74C, with 0.11.
Then A15G A21G A57G, with 0.22; and A15G A21G U43A U72A, with 0.2.
With A15G A47C U49A U80A, the self-cleavage stood at 0.16.
Then A15G A45G U66C U69A, with 0.26; and A15G A21G U26A U48C G63U, with 0.48; and A15G G16A A77U, with 0.13.
In the case of A15G C44U A57U A64G G70C U80C it was 0.13; in that of A15G A47G A56U U69C, 0.23.
With A15G A28G U41C U67C, the self-cleavage was found to be 0.16.
Then A15G A21G A56U, with 0.14; and A15G C39U A65G U78G, with 0.14; and A15G A28G C34U A35U C71U U72A, with 0.06.
Then A15G A21G U25C U67C U78C, with 0.32.
Regarding A15G G16A A21G A28C U67C U72C, the self-cleavage was found to be 0.26.
In the case of A15G A65G A77G U78C it was 0.23; in that of A15G A35G A65G U66C, 0.12; in that of A15G A35U C39A U48C U72A, 0.06.
For A15G A35U U41C U69A, the self-cleavage was determined as 0.25.
As for A15G A28C U60A A65U U80C, the self-cleavage stood at 0.12.
Then A15G A35U U41C A45U A47G U72A, with 0; and A15G A21G U25A C38U A56G, with 0.13; and A15G A45U A47G A64G U69C U80A, with 0.07.
Consider A15G A28C A57G A64U, for which the self-cleavage came to 0.16.
As for A15G C23G A47G, the self-cleavage was 0.42.
A15G A47G U48A U49G: the self-cleavage was 0.05.
As to A15G G16C A20G A57G U78A, the self-cleavage is 0.05.
In the case of A15G A35U U76A it was 0.61; in that of A15G C32A U41A A45G G55U U69A, 0.09; in that of A15G A35G A45G U49A, 0.16.
Then A15G C39A U76A, with 0.21; and A15G C39G U58C U76A C81U, with 0.01.
In the case of A15G A35G U78A it was 0.74; in that of A15G A45U U48A, 0.11; in that of A15G A28G U51A G53A U72C, 1.08.
Consider A15G A47G A56U U74A, for which the self-cleavage stood at 0.46.
In the case of A15G A35G U48C A57U U66C U67C U80C it was 0.06; in that of A15G A57G A77U, 0.47.
Then A15G A47G U49C U60C G63U, with 0.18.
Then A15G A21G C34U, with 0.31.
In the case of A15G C39U A57G U60C U76A, the self-cleavage amounted to 0.18.
In the case of A15G A45G U58C U78A it was 0.41; in that of A15G A35G U58C, 0.38.
On to A15G A21G C37U A45G U51C U54C A64G, for which the self-cleavage worked out at 0.
Then A15G A47G U49A U54A, with 0.07.
In the case of A15G A35U A47U it was 0.17; in that of A15G A28U A35U U49C, 0.08.
Then A15G A28U A64U U76C, with 0.14.
